Results on one molecule are retold here after patent US20070281326A1 (QUARK PHARMACEUTICALS, published 2007).

For one test, the target named is T1, TSC2 (human, UniProt P49815 1-1807, limits assumed).
T1 construct: TSC2 without a stated tag, endogenous or expressed from transfected cDNA in 293T cell extracts; also called tuberin; endogenous TSC2
The test is described as follows: GST pull-down from 293T extract, Western blot (FIG. 14).

The target in test [1] is T2, tyrosinated alpha-tubulin (Tyr-tubulin), endogenous in cell extracts (Homo sapiens (Human), UniProt P68363, tyrosinated at its carboxyl terminus (Tyr-tubulin) where detected with anti-Tyr-tubulin antibodies).
T2 construct: Endogenous protein of 293T or BE2C cell extracts; also called Tyr-alpha-tubulin; endogenous alpha tubulin
The test is described as above.

Sequence of TSC2 (P49815 other isoform, or with tags, fused parts or gaps limits assumed): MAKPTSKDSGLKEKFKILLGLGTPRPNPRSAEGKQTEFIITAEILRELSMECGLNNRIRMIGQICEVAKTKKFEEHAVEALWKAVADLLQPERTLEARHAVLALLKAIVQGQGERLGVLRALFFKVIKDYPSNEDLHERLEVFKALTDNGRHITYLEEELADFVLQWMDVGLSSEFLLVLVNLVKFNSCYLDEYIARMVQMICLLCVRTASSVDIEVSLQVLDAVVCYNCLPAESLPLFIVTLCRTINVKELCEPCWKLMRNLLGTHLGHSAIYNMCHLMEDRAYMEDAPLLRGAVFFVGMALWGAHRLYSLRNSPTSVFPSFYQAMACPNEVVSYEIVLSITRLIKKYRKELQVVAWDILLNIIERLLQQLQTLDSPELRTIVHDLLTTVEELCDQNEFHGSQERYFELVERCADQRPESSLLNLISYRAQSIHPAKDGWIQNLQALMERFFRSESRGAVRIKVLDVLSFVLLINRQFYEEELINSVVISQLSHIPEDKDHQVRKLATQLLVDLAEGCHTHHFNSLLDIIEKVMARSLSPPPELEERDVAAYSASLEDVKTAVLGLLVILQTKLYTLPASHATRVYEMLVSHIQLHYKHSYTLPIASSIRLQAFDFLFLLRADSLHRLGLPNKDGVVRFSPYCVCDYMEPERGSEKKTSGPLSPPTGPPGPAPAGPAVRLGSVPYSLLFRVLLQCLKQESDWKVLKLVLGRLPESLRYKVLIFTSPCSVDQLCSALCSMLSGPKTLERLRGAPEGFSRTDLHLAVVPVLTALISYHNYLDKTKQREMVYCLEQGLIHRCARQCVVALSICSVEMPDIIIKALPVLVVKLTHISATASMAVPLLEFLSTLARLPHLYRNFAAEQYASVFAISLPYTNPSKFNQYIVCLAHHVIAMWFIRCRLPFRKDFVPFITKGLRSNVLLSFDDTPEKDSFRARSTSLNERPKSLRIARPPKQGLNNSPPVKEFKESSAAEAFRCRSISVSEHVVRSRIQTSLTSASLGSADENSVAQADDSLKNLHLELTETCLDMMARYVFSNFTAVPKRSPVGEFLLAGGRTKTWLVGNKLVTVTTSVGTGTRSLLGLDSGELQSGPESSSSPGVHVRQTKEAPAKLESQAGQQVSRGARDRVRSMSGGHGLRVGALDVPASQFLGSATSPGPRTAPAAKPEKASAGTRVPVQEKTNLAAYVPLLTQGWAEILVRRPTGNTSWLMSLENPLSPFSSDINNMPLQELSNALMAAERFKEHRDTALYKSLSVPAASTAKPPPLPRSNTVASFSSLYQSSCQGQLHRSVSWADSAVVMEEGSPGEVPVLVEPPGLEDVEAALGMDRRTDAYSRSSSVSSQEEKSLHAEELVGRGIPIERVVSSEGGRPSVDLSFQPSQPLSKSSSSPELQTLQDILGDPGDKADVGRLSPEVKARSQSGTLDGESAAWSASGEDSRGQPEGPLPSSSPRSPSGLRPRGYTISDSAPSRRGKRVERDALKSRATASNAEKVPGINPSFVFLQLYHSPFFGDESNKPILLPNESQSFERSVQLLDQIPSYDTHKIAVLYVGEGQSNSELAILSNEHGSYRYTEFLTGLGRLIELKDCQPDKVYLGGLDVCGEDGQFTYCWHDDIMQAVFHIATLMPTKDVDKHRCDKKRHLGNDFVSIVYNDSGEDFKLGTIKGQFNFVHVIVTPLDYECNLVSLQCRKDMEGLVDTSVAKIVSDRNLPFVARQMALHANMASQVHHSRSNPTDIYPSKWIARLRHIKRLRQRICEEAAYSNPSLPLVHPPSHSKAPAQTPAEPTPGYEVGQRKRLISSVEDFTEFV
T2 sequence (P68363 whole entry): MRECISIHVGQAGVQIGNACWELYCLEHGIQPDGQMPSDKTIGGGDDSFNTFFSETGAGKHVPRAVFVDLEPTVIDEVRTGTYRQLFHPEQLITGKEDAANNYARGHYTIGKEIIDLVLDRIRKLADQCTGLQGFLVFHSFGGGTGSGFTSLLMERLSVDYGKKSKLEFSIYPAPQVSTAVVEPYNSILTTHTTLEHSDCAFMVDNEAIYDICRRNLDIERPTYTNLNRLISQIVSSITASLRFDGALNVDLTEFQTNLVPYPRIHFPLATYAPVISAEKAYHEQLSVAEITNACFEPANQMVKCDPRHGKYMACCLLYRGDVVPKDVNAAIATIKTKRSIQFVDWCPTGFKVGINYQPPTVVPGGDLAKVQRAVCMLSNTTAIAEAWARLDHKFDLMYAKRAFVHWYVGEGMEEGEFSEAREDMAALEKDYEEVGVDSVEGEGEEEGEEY

B1: free GST (other)
chain: not shown
notes: Control bait
As for B1, the binding result (with TSC2; in test [1]) was “no binding” in each case.
